{"source": "paper PMC4336329", "about": "(PLoS ONE, 2015)", "note": "Screen size: about 310,000 compounds; about 2,200 (0.71%) showed an effect of 50% or more. The effect is printed as a negative number. Some of the results follow.", "data": [{"molecular_target": "human ether-à-go-go-related gene (hERG) potassium channel (human, UniProt Q12809)", "sequence (Q12809 whole entry, looked up)": "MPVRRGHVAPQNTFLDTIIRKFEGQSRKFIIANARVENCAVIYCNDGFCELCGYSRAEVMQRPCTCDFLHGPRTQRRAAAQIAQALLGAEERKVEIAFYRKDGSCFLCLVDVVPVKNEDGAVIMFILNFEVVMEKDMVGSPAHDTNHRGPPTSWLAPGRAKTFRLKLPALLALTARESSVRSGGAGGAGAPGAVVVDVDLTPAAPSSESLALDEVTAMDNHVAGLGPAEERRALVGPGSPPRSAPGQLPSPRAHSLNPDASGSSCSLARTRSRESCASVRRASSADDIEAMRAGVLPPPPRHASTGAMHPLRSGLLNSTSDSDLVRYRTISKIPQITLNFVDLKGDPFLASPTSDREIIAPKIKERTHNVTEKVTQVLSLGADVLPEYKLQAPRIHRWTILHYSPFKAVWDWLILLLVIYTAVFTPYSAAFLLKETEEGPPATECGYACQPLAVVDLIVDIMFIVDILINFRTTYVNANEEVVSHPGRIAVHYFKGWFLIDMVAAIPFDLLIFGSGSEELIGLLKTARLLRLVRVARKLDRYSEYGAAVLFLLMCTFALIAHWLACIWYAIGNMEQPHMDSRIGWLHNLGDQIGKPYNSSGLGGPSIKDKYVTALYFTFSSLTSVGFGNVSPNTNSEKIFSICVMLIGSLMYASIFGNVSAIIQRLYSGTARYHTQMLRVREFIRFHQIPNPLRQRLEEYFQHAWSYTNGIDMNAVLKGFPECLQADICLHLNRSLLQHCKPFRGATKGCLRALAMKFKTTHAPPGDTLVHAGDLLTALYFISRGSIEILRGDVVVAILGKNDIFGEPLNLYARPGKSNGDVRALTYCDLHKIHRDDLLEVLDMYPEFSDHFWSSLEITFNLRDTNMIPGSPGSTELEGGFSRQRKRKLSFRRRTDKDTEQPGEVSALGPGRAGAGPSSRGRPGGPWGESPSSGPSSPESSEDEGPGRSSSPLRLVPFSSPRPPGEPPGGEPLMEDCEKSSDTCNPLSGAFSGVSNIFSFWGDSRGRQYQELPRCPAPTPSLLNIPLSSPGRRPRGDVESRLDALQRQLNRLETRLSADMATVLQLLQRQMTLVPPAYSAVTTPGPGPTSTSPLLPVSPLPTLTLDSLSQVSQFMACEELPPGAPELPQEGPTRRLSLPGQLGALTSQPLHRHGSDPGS", "assay": "primary screen, population patch clamp on CHO cells stably expressing hERG", "units": {"hERG current change (%, negative = inhibition) at 1uM": "%"}, "values": [{"compound": "COc1ccc2c3c(cccc13)OCC2=O", "hERG current change (%, negative = inhibition) at 1uM": 0.436}, {"compound": "CCOC(=O)[C@H]1[C@H]2COc3ccccc3[C@@H]2N2C(=O)c3cc(C)ccc3NC(=O)[C@@]12C", "hERG current change (%, negative = inhibition) at 1uM": 12.4}, {"compound": "CN(CC(=O)Nc1cccc(F)c1)C(=O)c1cc(-c2ccco2)nc2ccccc12", "hERG current change (%, negative = inhibition) at 1uM": -2.41}, {"compound": "CC(=O)c1ccc(N2CCN(C(=O)C3CCC3)CC2)cc1", "hERG current change (%, negative = inhibition) at 1uM": -7.31}, {"compound": "COc1cccc(NC(=O)CN(C)C(=O)c2cn(-c3ccccc3)nc2-c2cccs2)c1", "hERG current change (%, negative = inhibition) at 1uM": -10.7}, {"compound": "CCOC(=O)C1=C(O)/C(=C/c2cc(C)n(-c3ccccc3)c2C)N=C1C", "hERG current change (%, negative = inhibition) at 1uM": 8.12}, {"compound": "O=C(OC1CCOC1=O)c1cccc(S(=O)(=O)N2CCc3ccccc3C2)c1", "note": "(centres unmarked)", "hERG current change (%, negative = inhibition) at 1uM": 0.462}, {"compound": "COC(=O)c1sccc1NC(=O)c1ccc(Br)o1", "hERG current change (%, negative = inhibition) at 1uM": 8.28}, {"compound": "Cc1cc(C)nc(NS(=O)(=O)c2ccc(NC(=O)CCN3C(=O)c4ccccc4C3=O)cc2)n1", "hERG current change (%, negative = inhibition) at 1uM": 7.12}, {"compound": "COC(=O)c1cc(CSC(=N)N)ccc1OCCC(C)C.Cl", "hERG current change (%, negative = inhibition) at 1uM": 14.9}, {"compound": "Cc1cc(C)n2nc(SCc3nnc(-c4ccc(F)cc4)o3)nc2n1", "hERG current change (%, negative = inhibition) at 1uM": -9.79}, {"compound": "CNC(=O)c1ccsc1NC(=O)CCS(=O)(=O)c1ccccc1", "hERG current change (%, negative = inhibition) at 1uM": 15.6}, {"compound": "O=C(N/N=C/c1cccc([N+](=O)[O-])c1)c1cccc2cc[nH]c12", "hERG current change (%, negative = inhibition) at 1uM": 17.3}, {"compound": "Cc1ccc(-c2nnc(Nc3ccccc3)o2)cc1", "hERG current change (%, negative = inhibition) at 1uM": 5.78}, {"compound": "CCc1ccc(OCC(=O)NNC(=O)c2c(CC)noc2C)cc1", "hERG current change (%, negative = inhibition) at 1uM": 18.9}, {"compound": "COc1ccc2oc(C(=O)OCC(=O)NC3CC3)c(C)c2c1", "hERG current change (%, negative = inhibition) at 1uM": 13}, {"compound": "Cc1ccc(-n2c(C)cc(/C=N/NC(=O)c3ccc(CN4CCOCC4)cc3)c2C)cc1", "hERG current change (%, negative = inhibition) at 1uM": 2.56}, {"compound": "COc1cc(C(=O)NC2Cc3ccccc3C2)ccc1OC1CCN(C(C)=O)CC1", "hERG current change (%, negative = inhibition) at 1uM": 9.82}, {"compound": "CCCOc1ccc(C(C)=O)cc1Cc1c(O)[nH]c(=S)[nH]c1=O", "hERG current change (%, negative = inhibition) at 1uM": 16.1}, {"compound": "O=C(Cc1cccs1)Nc1nnc(-c2ccncc2)s1", "hERG current change (%, negative = inhibition) at 1uM": -0.792}, {"compound": "Cc1cccc(N2C(=O)C3C4C=CC(CC4)C3C2=O)c1", "note": "(centres unmarked)", "hERG current change (%, negative = inhibition) at 1uM": 11.6}, {"compound": "Cc1ccc(-n2cc(CN3CCNC(=O)CC3)c(-c3ccc(F)cc3)n2)cc1", "hERG current change (%, negative = inhibition) at 1uM": -3.41}, {"compound": "COc1ccc2nc(NC3=NCCC3)sc2c1", "hERG current change (%, negative = inhibition) at 1uM": -0.226}, {"compound": "COCCN(C(=O)c1csnn1)C(C(=O)NC1CCCC1)c1ccccc1F", "note": "(centres unmarked)", "hERG current change (%, negative = inhibition) at 1uM": 12.6}, {"compound": "CCN(c1ccccc1)S(=O)(=O)c1cccc(C(=O)NCC(c2ccco2)N2CCCC2)c1", "note": "(centres unmarked)", "hERG current change (%, negative = inhibition) at 1uM": -18.1}, {"compound": "COc1cc2cc(CN(CCc3cccc(C)c3)C(=S)NCCCN3CCOCC3)c(=O)[nH]c2cc1OC", "hERG current change (%, negative = inhibition) at 1uM": 5.22}, {"compound": "NS(=O)(=O)c1ccc(NC(=S)N2CCC(O)CC2)cc1", "hERG current change (%, negative = inhibition) at 1uM": 9.49}, {"compound": "COc1cc(CNc2ccc3[nH]c(=O)[nH]c3c2)cc(Br)c1OCC(=O)NC(C)(C)C", "hERG current change (%, negative = inhibition) at 1uM": 8.57}, {"compound": "CCc1ccc(N(CC(=O)NC(C)(C)CC)C(=O)CCC(=O)Nc2nccs2)cc1", "hERG current change (%, negative = inhibition) at 1uM": 2.74}, {"compound": "O=C1c2ccccc2C(=O)N1CC(O)CNc1ccc(Br)cc1", "note": "(centres unmarked)", "hERG current change (%, negative = inhibition) at 1uM": 5.22}, {"compound": "CCN(CC)S(=O)(=O)c1cc(C(=O)Nc2ccccc2[N+](=O)[O-])ccc1Cl", "hERG current change (%, negative = inhibition) at 1uM": -4.53}, {"compound": "O=C(C1CCC1)N1CCc2cc(S(=O)(=O)NCc3ccccn3)ccc21", "hERG current change (%, negative = inhibition) at 1uM": 11.1}, {"compound": "Nc1nnnn1/N=C/c1ccccc1OCc1ccccc1", "hERG current change (%, negative = inhibition) at 1uM": 12.8}, {"compound": "O=C(c1ccc(Cl)nc1)c1cccs1", "hERG current change (%, negative = inhibition) at 1uM": 16.5}, {"compound": "Cc1cc(/C=N/NC(N)=S)c(C)n1-c1ccc(Br)cc1", "hERG current change (%, negative = inhibition) at 1uM": 3.16}, {"compound": "O=c1cc(CN2CCOCC2)c2c(ccc3ccccc32)o1", "hERG current change (%, negative = inhibition) at 1uM": -6.35}, {"compound": "COCCOc1cc(NC(=O)CS(=O)(=O)CC(=O)N(C)C)c(Cl)cc1Cl", "hERG current change (%, negative = inhibition) at 1uM": 11.8}, {"compound": "COc1ccc(O)c(CN2CCN(C/C=C/c3ccccc3)CC2)c1", "hERG current change (%, negative = inhibition) at 1uM": -29}, {"compound": "COc1cccc(C(=O)N2CCN(C(=O)COc3ccc4ccccc4c3)CC2)c1", "hERG current change (%, negative = inhibition) at 1uM": -3.85}, {"compound": "CN(CC(=O)Nc1ccccc1Cl)C(=O)c1ccc(N2CCCCCC2)c([N+](=O)[O-])c1", "hERG current change (%, negative = inhibition) at 1uM": 10.1}, {"compound": "CC1=NN(C(=O)c2ccc(Br)cc2)C(O)(C(F)(F)OC(F)(F)F)C1", "note": "(centres unmarked)", "hERG current change (%, negative = inhibition) at 1uM": 17.2}, {"compound": "COc1ccc(C(C(=O)NC(C)(C)C)N(CCc2ccc(OC)c(OC)c2)C(=O)CCC(=O)Nc2cc(C)on2)cc1", "note": "(centres unmarked)", "hERG current change (%, negative = inhibition) at 1uM": 7.78}, {"compound": "CCNc1nc(Cl)nc(NC2CCCCC2)n1", "hERG current change (%, negative = inhibition) at 1uM": 15.4}, {"compound": "Cc1ccc(S(=O)(=O)N(C)C)cc1NC(=O)c1cccnc1Oc1ccccc1", "hERG current change (%, negative = inhibition) at 1uM": 11.9}]}]}
